The values that follow come from the supplement of paper PMC10441789.

The list shows a part of the results. Antibody binding of pooled human sera (four to six donors per pool; dilution not stated) to peptides of the Trypanosoma cruzi antigen TSSA on microarrays. Quantile-normalised fluorescence in arbitrary units, mean of duplicate arrays; higher = more binding. No active / inactive call. The uninfected pools are read here as the healthy donors of the same country. The strongest signals lie near the top of the scale (about 60,000).

One test relates to pooled sera of uninfected people, Brazil. Nature of the test: antibody binding signal (normalised fluorescence) (arbitrary fluorescence units); higher = stronger serum antibody binding to peptide. How it is done:
(§1)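 Microarray of 15-residue peptides over residues 30-55 of Trypanosoma cruzi TSSAII, each with 1 to 10 substitutions at naturally variable positions, probed with one serum pool per country.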
The sequence DNKTATGEAPSQPGA gave an antibody binding signal of 243.

Take TDKKAAAGETPSPPG: the antibody binding signal came out at 145.

PPSGTEKKAAAGETP registered an antibody binding signal of 278.

As to TISTPPSGTEKKAAT, the antibody binding signal is 170.

On to SGTDNKPATGEAPSQ, for which the antibody binding signal was 484.

The sequence SGKDNKAATGEAPSQ yielded an antibody binding signal of 165.

GKDKKTAAGEAPSQS showed an antibody binding signal of 107.

The sequence KKTATGEAPSPSGAS showed an antibody binding signal of 104.

Turning to ISTPPSGTENKAAAG, the antibody binding signal amounted to 400.

For the sequence GTEKKPATGEAPSPS, the antibody binding signal was determined as 1990.

With ENKTATGETPSPPGA, the antibody binding signal turned out to be 180.

The sequence KDKKAATGEAPSQSG came in with an antibody binding signal of 101.

In turn, SGTDNKAAAGGTPSP came in with an antibody binding signal of 2500.

The sequence TDNKAAAGETPSQPG returned an antibody binding signal of 197.

Sequence PPSGTENKAATGGAP registered an antibody binding signal of 271.

The sequence GKDNKAAAGEAPSQS had an antibody binding signal of 138.

PPSGTDNKPATGGAP yielded an antibody binding signal of 938.

PSGKEKKAAAGGTPS registered an antibody binding signal of 349.

TDKKTAAGEAPSQSG displayed an antibody binding signal of 284.

The sequence KAAAGETPSQPGASS displayed an antibody binding signal of 135.

On to TDKKAAAGGTPSQPG, for which the antibody binding signal amounted to 2230.

As to NKTATGEAPSPPGAS, the antibody binding signal was determined as 634.

With ENKPAAGETPSQPGA, the antibody binding signal turned out to be 249.

On to PSGKDNKTATGGAPS, for which the antibody binding signal was 132.

In the case of KKAAAGGAPSQSGAS, the antibody binding signal was 120.

DNKAAAGGTPSPPGA registered an antibody binding signal of 1690.

Sequence TEKKAAAGGTPSQSG registered an antibody binding signal of 1740.

TEKKPATGGAPSPSG had an antibody binding signal of 217.

KPAAGGTPSQSGASS showed an antibody binding signal of 262.

Turning to GKEKKTATGGAPSQP, the antibody binding signal was determined as 107.

In the case of ISTPPSGKDNKAAAG, the antibody binding signal was 112.

As for GKENKAAAGEAPSPP, the antibody binding signal came to 95.9.

KAAAGETPSPPGASS came in with an antibody binding signal of 134.

KEKKTAAGEAPSPSG showed an antibody binding signal of 86.7.

The sequence EKKTATGETPSQSGA came in with an antibody binding signal of 272.

In the case of TEKKTAAGGAPSQSG, the antibody binding signal is 241.

Sequence DNKTAAGEAPSPPGA showed an antibody binding signal of 235.

In turn, DKKPAAGETPSQPGA gave an antibody binding signal of 214.

GKDKKTATGGTPSPS registered an antibody binding signal of 101.

The sequence GKDKKPATGETPSPP yielded an antibody binding signal of 87.2.

For another test, the system named is pooled sera of uninfected people, Colombia. The description is as above. Here is the method:
as §1
DNKTATGEAPSQPGA came in with an antibody binding signal of 159.

Consider TDKKAAAGETPSPPG, for which the antibody binding signal was 149.

Sequence PPSGTEKKAAAGETP returned an antibody binding signal of 532.

For TISTPPSGTEKKAAT, the antibody binding signal worked out at 217.

Sequence SGTDNKPATGEAPSQ returned an antibody binding signal of 211.

As for SGKDNKAATGEAPSQ, the antibody binding signal is 333.

In turn, GKDKKTAAGEAPSQS had an antibody binding signal of 233.

For the sequence KKTATGEAPSPSGAS, the antibody binding signal turned out to be 120.

For ISTPPSGTENKAAAG, the antibody binding signal was 835.

The sequence GTEKKPATGEAPSPS displayed an antibody binding signal of 244.

Sequence ENKTATGETPSPPGA came in with an antibody binding signal of 153.

KDKKAATGEAPSQSG registered an antibody binding signal of 133.

SGTDNKAAAGGTPSP had an antibody binding signal of 532.

On to TDNKAAAGETPSQPG, for which the antibody binding signal turned out to be 237.

The sequence PPSGTENKAATGGAP returned an antibody binding signal of 873.

In turn, GKDNKAAAGEAPSQS had an antibody binding signal of 230.

In the case of PPSGTDNKPATGGAP, the antibody binding signal turned out to be 947.

In turn, PSGKEKKAAAGGTPS displayed an antibody binding signal of 177.

TDKKTAAGEAPSQSG came in with an antibody binding signal of 973.

On to KAAAGETPSQPGASS, for which the antibody binding signal is 218.

In turn, TDKKAAAGGTPSQPG yielded an antibody binding signal of 168.

As for NKTATGEAPSPPGAS, the antibody binding signal was 579.

ENKPAAGETPSQPGA had an antibody binding signal of 346.

In turn, PSGKDNKTATGGAPS returned an antibody binding signal of 160.

KKAAAGGAPSQSGAS gave an antibody binding signal of 102.

With DNKAAAGGTPSPPGA, the antibody binding signal amounted to 601.

As for TEKKAAAGGTPSQSG, the antibody binding signal came out at 169.

TEKKPATGGAPSPSG gave an antibody binding signal of 153.

KPAAGGTPSQSGASS showed an antibody binding signal of 171.

In turn, GKEKKTATGGAPSQP had an antibody binding signal of 86.2.

For ISTPPSGKDNKAAAG, the antibody binding signal amounted to 152.

In turn, GKENKAAAGEAPSPP returned an antibody binding signal of 110.

As to KAAAGETPSPPGASS, the antibody binding signal worked out at 101.

Take KEKKTAAGEAPSPSG: the antibody binding signal came out at 895.

EKKTATGETPSQSGA showed an antibody binding signal of 115.

Sequence TEKKTAAGGAPSQSG showed an antibody binding signal of 183.

For DNKTAAGEAPSPPGA, the antibody binding signal turned out to be 223.

The sequence DKKPAAGETPSQPGA displayed an antibody binding signal of 774.

For GKDKKTATGGTPSPS, the antibody binding signal was determined as 126.

GKDKKPATGETPSPP had an antibody binding signal of 140.

The test system of a further test is pooled sera of uninfected people, Mexico. The description is as above. How it is done: as §1
DNKTATGEAPSQPGA came in with an antibody binding signal of 212.

TDKKAAAGETPSPPG: the antibody binding signal is 243.

Turning to PPSGTEKKAAAGETP, the antibody binding signal was found to be 231.

TISTPPSGTEKKAAT displayed an antibody binding signal of 110.

SGTDNKPATGEAPSQ came in with an antibody binding signal of 308.

The sequence SGKDNKAATGEAPSQ registered an antibody binding signal of 108.

With GKDKKTAAGEAPSQS, the antibody binding signal was found to be 85.2.

In turn, KKTATGEAPSPSGAS displayed an antibody binding signal of 84.5.

For the sequence ISTPPSGTENKAAAG, the antibody binding signal is 290.

Sequence GTEKKPATGEAPSPS gave an antibody binding signal of 352.

In turn, ENKTATGETPSPPGA returned an antibody binding signal of 117.

As for KDKKAATGEAPSQSG, the antibody binding signal is 86.

The sequence SGTDNKAAAGGTPSP showed an antibody binding signal of 191.

As for TDNKAAAGETPSQPG, the antibody binding signal stood at 201.

As for PPSGTENKAATGGAP, the antibody binding signal was 232.

Take GKDNKAAAGEAPSQS: the antibody binding signal was 102.

PPSGTDNKPATGGAP registered an antibody binding signal of 1740.

In turn, PSGKEKKAAAGGTPS yielded an antibody binding signal of 80.4.

TDKKTAAGEAPSQSG returned an antibody binding signal of 199.

In turn, KAAAGETPSQPGASS had an antibody binding signal of 248.

Sequence TDKKAAAGGTPSQPG displayed an antibody binding signal of 747.

In turn, NKTATGEAPSPPGAS gave an antibody binding signal of 137.

Sequence ENKPAAGETPSQPGA gave an antibody binding signal of 207.

Take PSGKDNKTATGGAPS: the antibody binding signal stood at 106.

Turning to KKAAAGGAPSQSGAS, the antibody binding signal was 126.

Turning to DNKAAAGGTPSPPGA, the antibody binding signal worked out at 468.

For the sequence TEKKAAAGGTPSQSG, the antibody binding signal is 194.

For TEKKPATGGAPSPSG, the antibody binding signal stood at 303.

The sequence KPAAGGTPSQSGASS registered an antibody binding signal of 244.

Take GKEKKTATGGAPSQP: the antibody binding signal worked out at 120.

In the case of ISTPPSGKDNKAAAG, the antibody binding signal was found to be 86.6.

Consider GKENKAAAGEAPSPP, for which the antibody binding signal turned out to be 116.

Consider KAAAGETPSPPGASS, for which the antibody binding signal worked out at 162.

Consider KEKKTAAGEAPSPSG, for which the antibody binding signal is 83.9.

In the case of EKKTATGETPSQSGA, the antibody binding signal came to 234.

TEKKTAAGGAPSQSG registered an antibody binding signal of 836.

Take DNKTAAGEAPSPPGA: the antibody binding signal turned out to be 212.

Sequence DKKPAAGETPSQPGA had an antibody binding signal of 225.

Take GKDKKTATGGTPSPS: the antibody binding signal came to 78.2.

The sequence GKDKKPATGETPSPP registered an antibody binding signal of 627.
